Reference: PubChem BioAssay AID624417 (National Center for Advancing Translational Sciences (NCATS), 2012)
In all, about 410,000 compounds went through this assay and about 6,400 (1.6%) were called active. This list was built around the results that the source calls inconclusive (neither active nor inactive); the mix of calls is not that of the screen. Calls come from the whole dose curve; as a rule, active = well fitted inhibition curve with a large enough effect; inconclusive = small, poorly fitted or top-dose-only effect; inactive = no such curve, though single readings can be large or run the other way. Potencies of inconclusive entries are left out as doubtful fits.

Biological target: Glucagon-like peptide 1 receptor (Homo sapiens) (UniProt P43220)
Sequence of UniProt P43220 (P43220 whole entry, looked up): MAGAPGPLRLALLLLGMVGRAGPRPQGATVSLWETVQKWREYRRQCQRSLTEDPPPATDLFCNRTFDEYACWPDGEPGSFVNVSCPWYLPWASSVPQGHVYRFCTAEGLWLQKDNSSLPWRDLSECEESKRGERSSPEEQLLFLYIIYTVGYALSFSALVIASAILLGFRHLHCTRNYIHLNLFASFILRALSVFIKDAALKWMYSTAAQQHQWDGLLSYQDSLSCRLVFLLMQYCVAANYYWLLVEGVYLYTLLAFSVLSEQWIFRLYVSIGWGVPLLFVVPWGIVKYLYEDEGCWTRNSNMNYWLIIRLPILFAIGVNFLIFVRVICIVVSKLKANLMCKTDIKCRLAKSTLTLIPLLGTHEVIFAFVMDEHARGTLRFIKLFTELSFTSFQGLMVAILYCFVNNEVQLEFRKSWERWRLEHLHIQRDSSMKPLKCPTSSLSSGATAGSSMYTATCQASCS
Test: qHTS of GLP-1 Receptor Inverse Agonists (Inhibition Mode); note: nearly all actives have a fitted effect of over 55% in size
Conditions: HEK293 GLP-1R CRE-luciferase, luminescence, 24 h, GLP-1R form is constitutively active; series mostly up to 38.3 µM
In short: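 Luminescence readout: a drop in cAMP-driven luciferase signal flags inverse agonism at a constitutively active GLP-1R stably expressed in HEK293. Compound exposure lasted 24 hr at 37 deg C, 5% CO2.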
Potency is the fitted concentration of half-maximal effect; tags give direction and shape of the fitted curve.

Q: Which Potency does the source give for `CCN1CCN(CCNC(=O)c2ccc(/C=C3/Sc4ccccc4N(Cc4cccc(Cl)c4)C3=O)cc2)CC1` here?
A: inconclusive [inhibitor, partial curve, poor fit]

Q: `COC(=O)c1ccc(C(=O)OC)c(NC(=O)CCC(=O)O)c1` was tested. Which Potency did it give?
A: inactive

Q: With `CCOc1ccc(N(CC)S(=O)(=O)N2CCCC(C(=O)NCc3ccc(SC)cc3)C2)cc1` (stereo not given) as the compound, how does the Potency read?
A: inconclusive [inhibitor, single point]

Q: `CN(C)CCN(C(=O)c1ccc2c(c1)CCCC2)c1nc2c(F)cccc2s1` was tested. Which Potency did it give?
A: inconclusive [inhibitor, single point]

Q: With `CCNC(=O)/C(=C\C=C\c1ccccc1)NC(=O)c1ccc(Br)o1` as the compound, how does the Potency read?
A: inactive

Q: `COC(=O)C(NC(C)=O)(Nc1nc2c(C)cc(C)cc2s1)C(F)(F)F` (stereo not given) was tested. Which Potency did it give?
A: inconclusive [inhibitor, partial curve, poor fit]

Q: For `CC(C)CN1CCN(Cc2ccc(CN3CCCCC3)s2)CC1CCO` (stereo not given), which Potency is on record?
A: inconclusive [inhibitor, partial curve, poor fit]

Q: For `CCCCNC(=O)CSc1nc(CCC)nc2ccccc12`, which Potency is on record?
A: inconclusive [inhibitor, single point]

Q: For `CCOc1cc(S(=O)(=O)N(Cc2ccccc2)Cc2ccccc2)c(OCC)cc1-n1cnnn1`, which Potency is on record?
A: inactive

Q: Which Potency does the source give for `CCN1C(=O)S/C(=C/c2c(OCc3ccc(C(=O)O)cc3)ccc3ccccc23)C1=O` here?
A: inconclusive [inhibitor, single point]

Q: How did the Potency turn out when `C[C@H](O)[C@@H]1C(=O)N2CCc3c([nH]c4ccccc34)[C@@H]2C[C@@H]1N(C)C(=O)Nc1cccc2ccccc12` was run?
A: inactive

Q: `O=C(CCl)Nc1ccc(Oc2cnc3ccccc3n2)cc1` was tested. Which Potency did it give?
A: inconclusive [inhibitor, single point]

Q: `Clc1ccc(-c2nnc(-c3ccccc3)nc2N2CCSCC2)cc1` was tested. Which Potency did it give?
A: inconclusive [inhibitor, partial curve, poor fit]

Q: For `Cc1ccc(C)c(CN2C(=O)c3ccccc3S(=O)c3ccc(C(=O)NCCc4ccc(Cl)cc4)cc32)c1` (stereo not given), which Potency is on record?
A: inconclusive [inhibitor, single point]

Q: `Cc1c(C(=O)Nc2ccncc2)oc2ccccc12` was tested. Which Potency did it give?
A: inactive

Q: How did the Potency turn out when `COc1ccccc1CN(Cc1nc2ccccc2c(=O)[nH]1)C(=O)Nc1cccc(C)c1` was run?
A: inconclusive [inhibitor, partial curve, poor fit]

Q: `Cc1cccc(/C=C2\Sc3ccc(C(=O)N4CCOCC4)cc3N(C)C2=O)c1` was tested. Which Potency did it give?
A: inconclusive [inhibitor, partial curve, poor fit]

Q: Which Potency does the source give for `Cc1ccccc1N=C1NC(=O)/C(=C/c2cccnc2)S1` here?
A: inconclusive [inhibitor, single point]

Q: Which Potency does the source give for `CCOc1ccc(CNC(=O)C(C)n2ccc3cc(S(=O)(=O)N4CCCC4)ccc32)cc1` (stereo not given) here?
A: inconclusive [inhibitor, partial curve, poor fit]

Q: `O=C(NC(c1ccc(Cl)cc1)c1cnccn1)C1CCN(Cc2ccccc2)CC1` (stereo not given) was tested. Which Potency did it give?
A: inactive

Q: Which Potency does the source give for `CCc1cccc(NC(=O)c2ccc(NS(=O)(=O)c3c(C)noc3C)cc2)c1` here?
A: inconclusive [inhibitor, single point]

Q: Which Potency does the source give for `COc1ccccc1CNC(=O)c1oc2c(c1C)-c1nn(Cc3ccc(Cl)cc3)cc1CC2` here?
A: inconclusive [inhibitor, single point]

Q: How did the Potency turn out when `CCOC(=O)N1CCN(S(=O)(=O)c2ccc(C(=O)N(CCCN(C)C)c3nc4cc(OC)ccc4s3)cc2)CC1` was run?
A: inconclusive [inhibitor, single point]

Q: Which Potency does the source give for `CCN(CC)c1ccc(/C=N/NC(=O)CN2CCCc3ccccc32)cc1` here?
A: inconclusive [inhibitor, partial curve, poor fit]

Q: How did the Potency turn out when `O=C(O)c1ccccc1NC(=O)c1ccccc1Nc1ccccc1` was run?
A: inconclusive [inhibitor, full curve]

Q: For `Cc1onc(-c2ccccc2Cl)c1C(=O)NCc1ccc(F)cc1`, which Potency is on record?
A: inconclusive [inhibitor, partial curve, poor fit]

Q: For `COc1ccc(C(=O)N2CCC(c3c[nH]c4ccccc34)(c3c[nH]c4ccccc34)CC2)cc1`, which Potency is on record?
A: inconclusive [inhibitor, single point]

Q: For `O=C(CCNC(=O)c1ccccc1Cl)Nc1nc(-c2ccc3ccccc3c2)cs1`, which Potency is on record?
A: inconclusive [inhibitor, partial curve, poor fit]

Q: How did the Potency turn out when `CCOC(=O)c1nn(-c2ccc3c(c2)CCN3C(C)=O)cc1O` was run?
A: active: 11.2 µM

Q: Which Potency does the source give for `COc1cccc2[nH]c3c(N4CCC(C)CC4)ncnc3c12` here?
A: inactive

Q: For `CC1(C)C2CCC1(C)C(NC(=O)/C=C/c1ccccc1)C2` (stereo not given), which Potency is on record?
A: active: 7.08 µM

Q: For `CCOc1ccc(NC(=O)CN(C)C(=O)C(C)Oc2ccc(Cl)cc2)cc1OCC` (stereo not given), which Potency is on record?
A: inconclusive [inhibitor, partial curve, poor fit]

Q: With `Cc1cc(F)ccc1N1CCC(N2CCN(CCC(C)C)C(CCO)C2)CC1` (stereo not given) as the compound, how does the Potency read?
A: inconclusive [inhibitor, partial curve, poor fit]

Q: Which Potency does the source give for `Cc1ccc(N(C)C(=O)c2cnn(-c3ccccc3)c2C)c(C)c1` here?
A: inconclusive [inhibitor, partial curve, poor fit]

Q: For `CC(C)c1ccc(OCC(=O)NNC(=S)NC(=O)C2CC2)cc1`, which Potency is on record?
A: inconclusive [inhibitor, single point]

Q: `Cc1ccc(NC(=O)Nc2nnc(SCC(=O)N3CCC(C)CC3)s2)cc1` was tested. Which Potency did it give?
A: inconclusive [inhibitor, partial curve, poor fit]

Q: How did the Potency turn out when `Cc1cc(C)c2nc(/N=C(\N)NC(=O)Nc3ccccc3)nc(C)c2c1` was run?
A: inconclusive [inhibitor, partial curve, poor fit]

Q: Which Potency does the source give for `COCC1CCN(C(=O)c2cc(COc3ccc(F)cc3Cl)on2)C1` (stereo not given) here?
A: inconclusive [inhibitor, single point]

Q: Which Potency does the source give for `Cc1nnc(NC(=O)COc2ccc3c(C)cc(=O)oc3c2)s1` here?
A: inactive

Q: `CCOC(=O)C(=CNc1ccc(Cl)cn1)C(=O)OCC` was tested. Which Potency did it give?
A: inactive
